{
  "source": "paper PMC4336329",
  "about": "(PLoS ONE, 2015)",
  "note": "The campaign covered roughly 310,000 compounds. About 14,000 (4.5%) showed an effect of 50% or more. The effect is printed as a negative number. The list shows a part of the results.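 Also: peak tail current of the secondary pulse compared with the same well before compound.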",
  "data": [
    {"target": "human ether-à-go-go-related gene (hERG) potassium channel (human, UniProt Q12809)", "sequence (Q12809 whole entry, looked up)": "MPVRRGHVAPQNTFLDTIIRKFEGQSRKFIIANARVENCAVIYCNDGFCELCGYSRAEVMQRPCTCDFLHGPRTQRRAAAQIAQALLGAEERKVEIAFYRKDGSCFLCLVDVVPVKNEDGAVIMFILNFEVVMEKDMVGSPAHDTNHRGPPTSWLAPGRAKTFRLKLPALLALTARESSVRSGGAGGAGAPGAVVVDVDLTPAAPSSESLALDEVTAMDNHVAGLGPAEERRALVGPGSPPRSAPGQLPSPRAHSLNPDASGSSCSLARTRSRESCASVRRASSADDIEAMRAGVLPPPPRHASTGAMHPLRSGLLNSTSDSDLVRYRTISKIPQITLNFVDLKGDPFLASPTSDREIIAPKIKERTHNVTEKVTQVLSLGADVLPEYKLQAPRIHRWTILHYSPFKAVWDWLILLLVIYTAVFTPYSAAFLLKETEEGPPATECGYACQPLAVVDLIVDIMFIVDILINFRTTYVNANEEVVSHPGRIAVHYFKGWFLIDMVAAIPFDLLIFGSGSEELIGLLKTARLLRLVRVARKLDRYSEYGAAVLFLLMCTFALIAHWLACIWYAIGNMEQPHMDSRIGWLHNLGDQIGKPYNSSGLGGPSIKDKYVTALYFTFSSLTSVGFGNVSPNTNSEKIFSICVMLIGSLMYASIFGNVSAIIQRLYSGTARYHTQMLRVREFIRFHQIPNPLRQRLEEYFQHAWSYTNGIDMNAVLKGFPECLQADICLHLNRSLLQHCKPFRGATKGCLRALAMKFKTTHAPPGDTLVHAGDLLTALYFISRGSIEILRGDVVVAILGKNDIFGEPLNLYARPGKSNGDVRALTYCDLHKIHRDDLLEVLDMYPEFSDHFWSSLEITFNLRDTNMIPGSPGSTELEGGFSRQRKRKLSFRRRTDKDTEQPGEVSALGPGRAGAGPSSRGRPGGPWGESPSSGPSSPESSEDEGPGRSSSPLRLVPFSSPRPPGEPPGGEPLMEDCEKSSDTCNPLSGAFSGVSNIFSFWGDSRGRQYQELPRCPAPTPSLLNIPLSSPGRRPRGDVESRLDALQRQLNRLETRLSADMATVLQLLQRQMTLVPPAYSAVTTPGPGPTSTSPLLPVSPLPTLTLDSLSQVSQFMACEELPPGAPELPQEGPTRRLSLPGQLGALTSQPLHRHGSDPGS", "test": "primary screen, population patch clamp on CHO cells stably expressing hERG", "units": {"hERG current change (%, negative = inhibition) at 10uM": "%"}, "values": [
      {"compound": "CC1(C)CC(NC(=O)c2ccc3c(c2)OCO3)CC(C)(C)N1", "hERG current change (%, negative = inhibition) at 10uM": 4.65},
      {"compound": "CC(=O)OCc1nc2ccccc2s1", "hERG current change (%, negative = inhibition) at 10uM": 12},
      {"compound": "CC(=O)C1=C(O)C(=O)N(CCc2c[nH]c3ccccc23)C1c1ccccc1", "note": "(centres unmarked)", "hERG current change (%, negative = inhibition) at 10uM": 15.6},
      {"compound": "COC(=O)c1cc(S(=O)(=O)Nc2cc(OC)cc(OC)c2)cn1C", "hERG current change (%, negative = inhibition) at 10uM": 1.12},
      {"compound": "CC(n1cnnn1)C12CC3CC(CC(C3)C1)C2", "note": "(centres unmarked)", "hERG current change (%, negative = inhibition) at 10uM": -10.7},
      {"compound": "CCCCCOc1ccc(N2C(=O)C3C4C=CC(C3C2=O)N(C)C4=O)cc1", "note": "(centres unmarked)", "hERG current change (%, negative = inhibition) at 10uM": -31.2},
      {"compound": "O=C(O)Cc1sc(-c2ccccc2Cl)nc1-c1ccccc1", "hERG current change (%, negative = inhibition) at 10uM": -6.72},
      {"compound": "Cc1cc2ccccc2c(=O)n1CC(=O)NCC(=O)N1CCN(c2ccccc2F)CC1", "hERG current change (%, negative = inhibition) at 10uM": 1.63},
      {"compound": "O=C(N/N=C/c1c(O)n(Cc2ccccc2)c(=O)c2ccccc12)c1cccnc1", "hERG current change (%, negative = inhibition) at 10uM": 17.1},
      {"compound": "CN(C)/C=C/C(=O)c1c(F)cccc1F", "hERG current change (%, negative = inhibition) at 10uM": 8.69},
      {"compound": "CC(C)c1nc(C#N)c(N2CCOCC2)o1", "hERG current change (%, negative = inhibition) at 10uM": 6.32},
      {"compound": "CN(C(=O)COC(=O)C(C)(C)Oc1ccc(Cl)cc1)c1c(N)n(Cc2ccccc2)c(=O)[nH]c1=O", "hERG current change (%, negative = inhibition) at 10uM": 7.38},
      {"compound": "COc1cccc(CNCCc2c[nH]c3ccccc23)c1OCc1ccccc1.Cl", "hERG current change (%, negative = inhibition) at 10uM": -47},
      {"compound": "Nc1nc(SCC(=O)c2ccc([N+](=O)[O-])cc2)n[nH]1", "hERG current change (%, negative = inhibition) at 10uM": -1.82},
      {"compound": "N#Cc1c(-c2cccc(Cl)c2)[nH]c(=S)[nH]c1=O", "hERG current change (%, negative = inhibition) at 10uM": 33.5},
      {"compound": "CCOC(=O)Cn1nnnc1CN(Cc1ccc(OC)cc1)Cc1cc2cc(CC)ccc2[nH]c1=O", "hERG current change (%, negative = inhibition) at 10uM": -27},
      {"compound": "Cc1ccc(C2(c3ccccc3)NC(=O)N(CC(=O)NC3CCS(=O)(=O)C3)C2=O)cc1C", "note": "(centres unmarked)", "hERG current change (%, negative = inhibition) at 10uM": -9.17},
      {"compound": "CSCCC(NC(N)=O)C(=O)Nc1ccc(C)cc1", "note": "(centres unmarked)", "hERG current change (%, negative = inhibition) at 10uM": 28.1},
      {"compound": "Cc1ccccc1OCCOC(=O)c1c(-c2ccccc2)noc1C", "hERG current change (%, negative = inhibition) at 10uM": 3.13},
      {"compound": "COC(=O)Cn1c(C(=O)N2CCCC2)cc2c1C[C@H]1CN(C(=O)c3ccccc3)[C@@](Cc3ccc(F)cc3)(C(=O)OC)[C@@H]21", "hERG current change (%, negative = inhibition) at 10uM": -67.4},
      {"compound": "O=C(CN1C(=O)COc2ccccc21)NCCCN1CCCCC1", "hERG current change (%, negative = inhibition) at 10uM": 12},
      {"compound": "Cc1cc(C(=O)N(C)C2CCCCC2)no1", "hERG current change (%, negative = inhibition) at 10uM": 11.7},
      {"compound": "CCN(C(=O)CSc1ncccc1C(=O)O)C1CCCCC1", "hERG current change (%, negative = inhibition) at 10uM": 31.9},
      {"compound": "Cc1cc(-n2nc(C)cc2C)nc(NS(=O)(=O)c2ccccc2Cl)n1", "hERG current change (%, negative = inhibition) at 10uM": 1.72},
      {"compound": "Cc1ccccc1[C@@]1(C)ON(c2ccccc2C(F)(F)F)C1=O", "hERG current change (%, negative = inhibition) at 10uM": 0.704},
      {"compound": "CCOC(=O)N1CCN(C(=O)c2c[nH]c3ccc(S(=O)(=O)N(C)c4ccc(OCC)cc4)cc3c2=O)CC1", "hERG current change (%, negative = inhibition) at 10uM": 3.77},
      {"compound": "COc1nc(N=C(N)N)nc2c(C)cccc12", "hERG current change (%, negative = inhibition) at 10uM": -2.93},
      {"compound": "CNC(=O)c1c(NC(=O)C2=COCCO2)sc(C)c1C", "hERG current change (%, negative = inhibition) at 10uM": 14.7},
      {"compound": "NC(=O)C1CCN(c2oc(-c3ccccc3)nc2S(=O)(=O)c2ccc(Br)cc2)CC1", "hERG current change (%, negative = inhibition) at 10uM": -55.9},
      {"compound": "CCNC(=O)C1CC(=O)N(Cc2ccc3c(c2)OCO3)C(=Nc2ccc(OCC)cc2)S1", "note": "(centres unmarked)", "hERG current change (%, negative = inhibition) at 10uM": -0.331},
      {"compound": "O=C(NC1=NCCS1)c1cccc(S(=O)(=O)N2CCOCC2)c1", "hERG current change (%, negative = inhibition) at 10uM": -0.218},
      {"compound": "N#Cc1ccc(C23CC4(C2)[C@H](CN(Cc2ccc(-c5ccccc5)cc2)[C@@H]4c2ccccc2)C3c2ccccc2)cc1", "note": "(some centres unmarked)", "hERG current change (%, negative = inhibition) at 10uM": 14.5},
      {"compound": "CCCCn1c(N)c(N(CC(C)C)C(=O)c2oc3ccc(Br)cc3c2C)c(=O)[nH]c1=O", "hERG current change (%, negative = inhibition) at 10uM": -17.7},
      {"compound": "Cc1oc2c(CN3CCOCC3)c(O)ccc2c(=O)c1-c1ccc(Br)cc1", "hERG current change (%, negative = inhibition) at 10uM": -23.3},
      {"compound": "CCCCn1c(=O)c(C(C)=O)c(O)c2ccccc21", "hERG current change (%, negative = inhibition) at 10uM": 3.22},
      {"compound": "c1ccc(C(c2ccccc2)N2CCN(c3nc4ccccc4n4cnnc34)CC2)cc1", "hERG current change (%, negative = inhibition) at 10uM": -2.17},
      {"compound": "CCC1Sc2ccccc2N(CC(=O)NC2CCCCC2)C1=O", "note": "(centres unmarked)", "hERG current change (%, negative = inhibition) at 10uM": -11},
      {"compound": "C=C(C(=O)c1ccccc1)C(C)C(=C)C(=O)c1ccccc1", "hERG current change (%, negative = inhibition) at 10uM": 12.8},
      {"compound": "O=C1CC(c2ccccc2Cl)=NN(c2ncnc3ccccc23)C1=O", "hERG current change (%, negative = inhibition) at 10uM": 14.2},
      {"compound": "O=C(O)/C=C/C(=O)Nc1ccc2c(c1)NC(=O)CO2", "hERG current change (%, negative = inhibition) at 10uM": 13.9},
      {"compound": "O=C(COC(=O)Cc1ccccc1F)Nc1cc(S(=O)(=O)N2CCOCC2)ccc1N1CCCC1", "hERG current change (%, negative = inhibition) at 10uM": -26.9},
      {"compound": "Nc1ccccc1OCCOCCOCCOc1ccccc1N", "hERG current change (%, negative = inhibition) at 10uM": 6.68},
      {"compound": "CCOC(=O)c1c(NC(=O)CN2CCCCC2)sc(C)c1C", "hERG current change (%, negative = inhibition) at 10uM": 18.5},
      {"compound": "CCC(C)NC(=O)c1ccc2nc(Cc3ccc(OC)cc3)oc2c1", "note": "(centres unmarked)", "hERG current change (%, negative = inhibition) at 10uM": 14.5}
    ]}
  ]
}
